From PMC4336329 (PLoS ONE, 2015) come the findings set out here.

The whole screen tested about 310,000 compounds, of which about 14,000 (4.5%) showed an effect of 50% or more. The effect is printed as a negative number. The list shows a part of the results.
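Note: peak tail current of the secondary pulse compared with the same well before compound.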

The target of this test is human ether-à-go-go-related gene (hERG) potassium channel (human, UniProt Q12809). The experiment in a line: primary screen, population patch clamp on CHO cells stably expressing hERG.
Sequence of human ether-à-go-go-related gene (hERG) potassium channel (Q12809 whole entry, looked up): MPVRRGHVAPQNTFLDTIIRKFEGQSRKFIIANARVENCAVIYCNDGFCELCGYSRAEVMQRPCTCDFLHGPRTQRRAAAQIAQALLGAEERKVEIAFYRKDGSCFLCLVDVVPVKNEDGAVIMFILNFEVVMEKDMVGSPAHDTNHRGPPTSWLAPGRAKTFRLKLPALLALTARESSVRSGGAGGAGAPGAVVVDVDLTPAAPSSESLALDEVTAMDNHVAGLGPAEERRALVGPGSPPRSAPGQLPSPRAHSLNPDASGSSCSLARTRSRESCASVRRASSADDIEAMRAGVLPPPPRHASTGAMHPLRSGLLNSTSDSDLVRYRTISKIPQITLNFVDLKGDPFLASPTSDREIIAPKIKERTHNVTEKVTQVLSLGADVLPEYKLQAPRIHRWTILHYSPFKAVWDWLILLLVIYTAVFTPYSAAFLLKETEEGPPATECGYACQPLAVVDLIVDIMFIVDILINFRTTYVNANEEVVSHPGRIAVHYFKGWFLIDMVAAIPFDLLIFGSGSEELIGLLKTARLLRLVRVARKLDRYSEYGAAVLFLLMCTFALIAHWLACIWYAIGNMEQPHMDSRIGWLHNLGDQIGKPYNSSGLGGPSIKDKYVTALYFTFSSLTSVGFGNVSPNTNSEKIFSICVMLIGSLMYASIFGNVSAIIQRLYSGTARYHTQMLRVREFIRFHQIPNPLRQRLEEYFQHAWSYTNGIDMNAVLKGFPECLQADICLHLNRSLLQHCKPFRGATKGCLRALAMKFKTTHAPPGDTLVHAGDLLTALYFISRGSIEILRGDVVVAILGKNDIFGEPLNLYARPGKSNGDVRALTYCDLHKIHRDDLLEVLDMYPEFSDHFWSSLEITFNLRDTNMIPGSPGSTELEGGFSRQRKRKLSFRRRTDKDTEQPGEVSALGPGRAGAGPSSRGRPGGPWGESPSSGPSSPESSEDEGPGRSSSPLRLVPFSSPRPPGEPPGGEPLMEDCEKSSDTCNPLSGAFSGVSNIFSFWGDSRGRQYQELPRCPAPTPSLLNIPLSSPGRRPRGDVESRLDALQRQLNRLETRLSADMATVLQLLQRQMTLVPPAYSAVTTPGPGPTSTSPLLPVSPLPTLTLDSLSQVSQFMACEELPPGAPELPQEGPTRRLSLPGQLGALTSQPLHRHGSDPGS
For `CCOc1[nH]n(-c2ccc(Cl)cc2)c(=O)c1C=Nc1ccc(O)cc1`, the “hERG current change (%, negative = inhibition) at 10uM” value is 1.14%.

Take `CCOCCCNC(=O)CN1C(=O)C(CC)Oc2ccccc21` (centres unmarked): the “hERG current change (%, negative = inhibition) at 10uM” value stood at 1.94%.

Consider `CC(NCC(=O)Nc1cc(Cl)cc(Cl)c1)c1ccccc1.O=C(O)C(=O)O` (centres unmarked), for which the “hERG current change (%, negative = inhibition) at 10uM” value is -0.749%. `COc1cc(-c2csc(N3CCOCC3)n2)cc(OC)c1OC`: the “hERG current change (%, negative = inhibition) at 10uM” value came out at 13.3%. As for `O=C(O)CC1S/C(=N\N=C2CCCCCCC2)N(c2ccccc2)C1=O` (centres unmarked), the figure is 28.8%. On to `CCOC(=O)CCc1c(C)c2ccc(OCc3ccc([N+](=O)[O-])cc3)cc2oc1=O`, for which the “hERG current change (%, negative = inhibition) at 10uM” value is listed as -3.1%. Take `O/N=C(/c1ccc(Cl)cc1)C1CC1c1ccccc1` (centres unmarked): the “hERG current change (%, negative = inhibition) at 10uM” value was found to be 2.06%. Take `Nc1ccc(CCc2nc3ccccc3o2)cc1`: the “hERG current change (%, negative = inhibition) at 10uM” value is listed as -0.017%. For the molecule `Cc1ccc(C2=CCNCC2)cc1.Cl`, the “hERG current change (%, negative = inhibition) at 10uM” value is recorded as 17.1%. With `Cn1nc(C(=O)NCCOc2ccccc2)c2ccccc2c1=O` the figure was -15.1%. As for `COc1ccc(C2C(C(C)=O)=C(O)C(=O)N2c2ccc(C)cc2)cc1` (centres unmarked), the figure is 17.6%; as for `c1ccc(-c2noc(-c3ccncc3)n2)nc1`, 4.49%. With `Nc1ccn([C@@H]2CS[C@H](CO)O2)c(=O)n1` the figure was 10.3%; with `COc1ccc(C(=O)COC(=O)CN2C(=O)NC(C)(C)C2=O)cc1OC`, -1.87%; with `c1csc(-c2nnc(Cc3cccc4ccccc34)o2)c1`, -8.86%. As to `COc1ccc(C2N(c3cc(Cl)ccc3OC)C(=O)C3CCCN32)cc1OC` (centres unmarked), the “hERG current change (%, negative = inhibition) at 10uM” value is reported as -4.91%. As for `Cc1cc(C(=O)N/N=C/c2c[nH]c3ccccc23)c(C)o1`, the figure is -27.4%; as for `O=S(=O)(N1CCOCC1)N1CCN(c2ccccc2F)CC1`, -8.17%; as for `CCOc1cc(NC(=S)NCCCN2CCOCC2)c(OCC)cc1NC(=O)c1cccc(C)c1`, 9.73%.

As to `O=C(CN1CCN(c2ccccc2)CC1)NC(=O)NCc1ccccc1`, the “hERG current change (%, negative = inhibition) at 10uM” value was 9.43%.

As for `CC(C)(Cl)[N+](=O)[O-]`, the “hERG current change (%, negative = inhibition) at 10uM” value is 12.5%. Take `Cc1cc(=O)oc2cc(OCC(=O)OCC(=O)Nc3ccccc3Br)ccc12`: the “hERG current change (%, negative = inhibition) at 10uM” value was found to be 14.5%. With `Cc1ccc(-c2[nH]ncc2C(=O)c2ccccc2C)c(O)c1` the figure was -4.84%.

With `COc1ccccc1NS(=O)(=O)c1cccc(C(=O)N/N=C/c2ccc(NC(C)=O)cc2)c1`, the “hERG current change (%, negative = inhibition) at 10uM” value turned out to be 20.1%. As for `COc1ccccc1N(CC(=O)N1CCc2ccccc2C1)S(C)(=O)=O`, the figure is 13.6%; as for `CCCC1S/C(=N/N=C/c2ccc(C)cc2)N(Cc2ccc(OC)cc2)C1=O` (centres unmarked), 9.81%.
